Measured values from PubChem BioAssay (Tox21).
This list was built around the results that the source calls inconclusive (neither active nor inactive); the mix of calls is not that of the screen. Potencies of inconclusive entries are left out as doubtful fits. Active and inactive are the calls of the source. Calls come from the whole dose curve; as a rule, active = well fitted activation curve with a large enough effect in the repeat runs; inconclusive = weak or mixed curves; inactive = flat fitted curve, though single readings scatter.

test: A CellTox Green Cytotoxicity Assay to monitor cytotoxicity in HEK293 cells - 32 hour (AID 1224881); conditions: CellTox Green fluorescence; series mostly up to 76.8 µM; cytotoxicity increase: at the top concentration; note: nearly all actives have a fitted effect of over 40% in size
How it was run: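 Nonlytic real-time cytotoxicity: HEK293 + CellTox Green reagent plated, 5 h preincubation, pintool compound addition (23 nL in DMSO), 37 C for 40 h, fluorescence measured at successive time points.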
% is set by controls: 0 for no effect and ±100 for the full control effect; potency is the fitted concentration of half-maximal effect; tags give direction and shape of the fitted curve.

**Q.** Which “cytotoxicity increase” value does the source give for `O=C(O)Cc1ccc2c(c1)C(=O)c1ccccc1CO2` here?
**A.** inactive: -2.06% [at 35.3 µM]

**Q.** Which Potency does the source give for `CC(C)[C@@H]1CC[C@@H](C)CC1=O` here?
**A.** inconclusive [activator, single point]

**Q.** For `COC(=O)CCCCCCCC(=O)OC`, which “cytotoxicity increase” value is on record?
**A.** inactive: -0.843%

**Q.** Which “cytotoxicity increase” value does the source give for `CC(=O)OCC1=C(C(=O)O)N2C(=O)[C@@H](NC(=O)CSc3ccncc3)[C@H]2SC1` here?
**A.** inactive: 0.495% [at 35.3 µM]

**Q.** Which “cytotoxicity increase” value does the source give for `CC(=O)N(CC(O)CO)c1c(I)c(C(=O)NCC(O)CO)c(I)c(C(=O)NCC(O)CO)c1I` (configuration not stated) here?
**A.** inactive: -9.3% [at 35.3 µM]

**Q.** Which “cytotoxicity increase” value does the source give for `CCCc1ccccc1O` here?
**A.** inactive: -4.97%

**Q.** For `CC(C)CC(=O)OCc1ccccc1`, which “cytotoxicity increase” value is on record?
**A.** inactive: 13.1%

**Q.** For `O=C(O)c1cccc(C(=O)O)c1C(=O)O`, which “cytotoxicity increase” value is on record?
**A.** inactive: -3.7%

**Q.** For `C/C(C=O)=C\c1ccccc1`, which Potency is on record?
**A.** inconclusive [activator, partial curve, poor fit]

**Q.** Which “cytotoxicity increase” value does the source give for `O=C1C(c2[nH]c3ccc(S(=O)(=O)O)cc3c2O)=Nc2ccc(S(=O)(=O)O)cc21` here?
**A.** inactive: -7.07%

**Q.** For `CCCCCCCCCCCCCCCCBr`, which cytotoxicity increase is on record?
**A.** inactive: 0.813% [at 15.8 µM]

**Q.** Which “cytotoxicity increase” value does the source give for `Cc1ccc2cccnc2c1` here?
**A.** inactive: -2.87%

**Q.** For `CC(C)(O)CCc1ccccc1`, which “cytotoxicity increase” value is on record?
**A.** inactive: 15%

**Q.** With `Nc1ccn([C@@H]2O[C@H](CO)[C@@H](O)C2O)c(=O)n1` (some centres not stated) as the compound, how does the “cytotoxicity increase” value read?
**A.** inactive: 0.653%

**Q.** Which “cytotoxicity increase” value does the source give for `C[CH2][Ge]([Cl])([CH2]C)[CH2]C` here?
**A.** inactive: -0.28%

**Q.** For `CCCCCCCC`, which “cytotoxicity increase” value is on record?
**A.** inactive: -8.7%

**Q.** For `CCc1ccc2c(c1)C(=O)c1ccccc1C2=O`, which “cytotoxicity increase” value is on record?
**A.** inactive: -1.49%
